About 7,500 (2.1%) of roughly 360,000 compounds were called active. Another 20% or so got no clear call; they are omitted. Calls come from the whole dose curve; as a rule, active = well fitted inhibition curve with a large enough effect; inconclusive = small, poorly fitted or top-dose-only effect, or effect the other way; inactive = flat fitted curve, though single readings scatter. The list shows a part of the results, in another mix than the full data. A structure can be active in one record and inactive in another.
% is set by controls: 0 for no effect and ±100 for the full control effect; potency is the fitted concentration of half-maximal effect.

The assay is described as follows: Nrf2 qHTS screen for inhibitors. Note: nearly all actives have a fitted effect of over 60% in size. Particulars: A549 ARE-Fluc reporter, luciferase luminescence, 18-24 h; series mostly up to 46 µM; activity change, negative = inhibition: at the top concentration. A digest of the protocol:
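A549 ARE_Fluc cells, 5000/well, 5% FBS OPTI-MEM; compounds in dose-response, 18-24 h at 37 °C/5% CO2; CellTiter-Fluor viability read (Ex 405/Em 525), then BugLite luciferase luminescence = Nrf2 activity.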
Take `C[C@H]1COc2c(N3CCN(C)CC3)c(F)cc3c(=O)c(C(=O)O)cn1c23`: the “activity change, negative = inhibition” value is inactive: 1.79%.
With `CC1OC(CC(=O)O)CC2=C1C(=O)c1c(O)cccc1C2=O` (configuration not stated), the Potency is active: 20.6 µM.
For `CCOC(=O)[C@@H]1[C@H]2COc3cc(OC)ccc3[C@@H]2N2C(=O)N(c3cccc(F)c3)C(=O)[C@@]12C`, the “activity change, negative = inhibition” value was inactive: 12.7%.
With `CCNc1nc(NCc2ccccc2)nc(SCC(=O)Nc2ccccc2)n1`, the Potency is active: 23.1 µM.
For `COc1ccc(C)cc1NS(=O)(=O)c1ccc2c(c1)n(C)c(=O)n2C`, the “activity change, negative = inhibition” value was inactive: -8.91%.
In the case of `Cc1ccnn1CC(=O)N/N=C/c1ccc([N+](=O)[O-])s1`, the Potency is active: 25.9 µM.
As to `CCCN1C(=O)C(Cc2nc3ccccc3c(=O)n2-c2ccccc2)c2cc(C)ccc21` (configuration not stated), the “activity change, negative = inhibition” value is inactive: -3.44%.
Regarding `C[C@@H]1OC(Nc2ccc(N=Nc3ccccc3)cc2)[C@H](O)[C@H](O)[C@H]1O` (some centres not stated), the “activity change, negative = inhibition” value is inactive: 0.843%.
As to `COc1cccc(NC(=O)CSc2nc3ccccc3n2C)c1`, the “activity change, negative = inhibition” value is inactive: 3.34%.
As for `C=CC[C@@H](CC(=O)NCCO)C(=O)N[C@@H](COC(=O)[C@@H](CC=C)Cc1ccc(F)cc1)Cc1ccccc1`, the “activity change, negative = inhibition” value was inactive: -5.86%.
`O=C(COC(=O)c1cc([N+](=O)[O-])ccc1N1CCOCC1)Nc1ccc(Cl)cc1`: the Potency was active: 18.4 µM.
Consider `CCn1c(C)cc(C(=O)COC(=O)c2ccccc2[N+](=O)[O-])c1C`, for which the Potency is active: 0.731 µM.
For `OCC[C@H]1C[C@H](O)[C@@H](O)[C@]2(Cc3ccccc3CO2)O1`, the “activity change, negative = inhibition” value was inactive: 5.74%.
Consider `C/C=C(/C)C(=O)OC1c2c(ccc3ccc(=O)oc23)OC(C)(C)C1OC(C)=O` (configuration not stated), for which the “activity change, negative = inhibition” value was inactive: -25%.
On the same count and under the same terms, then `CCSc1ccc([C@@H]2[C@@H]3C(=O)N(C)C(=O)[C@@H]3[C@]3(C(=O)OC)CCCCN23)cc1OC`, with inactive: -9.37%; and `CCOc1ccc(CN(C(=O)c2cc(=O)c3cc(C)cc(C)c3o2)C2CCS(=O)(=O)C2)cc1` (configuration not stated), with inactive: 2.24%.
Turning to `CCCCOc1cc(C(=O)NCCN(CC)CC)c2ccccc2n1`, the “activity change, negative = inhibition” value is inactive: 6.03%.
Regarding `O=c1c2ccccc2ncn1-c1ccc(Cl)cc1`, the “activity change, negative = inhibition” value is inactive: 17.1%.
Consider `COc1ccc(-n2c(=O)[nH]c3cc(C(=O)NCCc4ccccc4)ccc3c2=O)cc1OC`, for which the activity change, negative = inhibition was inactive: -19.7% [at 9.27 µM].
For `O=C(N[C@H]1C/C=C\C[C@H](CC(=O)N(CCO)Cc2ccccc2)C(=O)NC[C@H](c2ccccc2)OC1=O)OCC1c2ccccc2-c2ccccc21`, the “activity change, negative = inhibition” value was inactive: -1.25%.
On the same count and under the same terms, under `Cc1ccc(-n2ccn(CC(=O)NCCc3ccccc3)c(=O)c2=O)cc1C` stands inactive: 0.205%.
Regarding `CC(C)Cn1cc(NC(=O)Nc2cccc(C(F)(F)F)c2)c2ccccc2c1=O`, the Potency was active: 23.1 µM.
Regarding `O=S(=O)(c1ccc(Cl)cc1)N1CCN(c2ncnc3sccc23)CC1`, the Potency is active: 20.6 µM.
Take `O=C(NN1C(=O)/C(=C\c2cccnc2)SC1=S)C(c1ccccc1)c1ccccc1`: the “activity change, negative = inhibition” value was inactive: -27.6%.
In the case of `C=Cc1ccc(Cn2nc(-c3ccc(C)cc3)ccc2=O)cc1`, the “activity change, negative = inhibition” value is inactive: 12.7%.
Same read-out and setting: under `CCn1c(SCC(=O)N/N=C/C=C/c2ccco2)nc2ccccc21` stands inactive: 9.64%; under `Cc1ccccc1CNS(=O)(=O)c1csc(C(N)=O)c1`, inactive: 23.9%.
With `COc1ccccc1CNC(=O)C(CC(C)C)NS(=O)(=O)c1ccc2c(c1)oc(=O)n2C` (configuration not stated), the “activity change, negative = inhibition” value is inactive: 5.55%.
Still for that read-out and setting: then `CCC(=O)N1CCc2cc(S(=O)(=O)NCCC(=O)NCc3ccccc3Cl)ccc21`, with inactive: -5.39%; and `CCOC(=O)c1cnc2ccccc2c1NCCc1ccc(OC)c(OC)c1`, with inactive: -18.9%; and `O=C1CCN(CCc2ccccc2)CCN1[C@H](CSc1ccc(Br)cc1)Cc1ccccc1`, with inactive: -12.4%.
Take `Cc1ccc(Nc2nc(N)nc(CSc3nc4ccccc4s3)n2)cc1`: the “activity change, negative = inhibition” value was inactive: -0.877%.
Same read-out and setting: then `CCO[C@@H]1OC(C(=O)N2CCN(Cc3ccc4c(c3)OCO4)CC2)=C[C@H](C2CC2)[C@H]1CCCO`, with inactive: 12.1%; and `Cc1ccc(CS(=O)(=O)c2ncc(Cl)c(C(=O)Nc3nnc(C(C)C)s3)n2)cc1`, with inactive: 0.49%.
With `O=C1OC[C@H]2CCCN2C(=O)[C@@H](CC(=O)N(CCO)Cc2ccccc2)C/C=C\CC[C@@H]1Cc1ccc(F)cc1`, the “activity change, negative = inhibition” value is inactive: -8.44%.
As for `Cc1ccccc1C(=O)c1cccn1CC(=O)NCc1ccc(Cl)cc1`, the “activity change, negative = inhibition” value is inactive: 9.82%.
Same read-out and setting: under `COc1cc(F)c(S(=O)(=O)N2CCCN(S(=O)(=O)c3cccc(N)c3)CC2)c(F)c1` stands inactive: -18.7%; under `COc1ccc(CNC(=O)Cn2nc(C)n3cccc3c2=O)cc1`, inactive: 13.7%; under `COc1cc(C(CCN2CCN(c3ccccc3)CC2)c2c(OC)cc(OC)c3ccc(=O)oc23)cc(OC)c1OC` (configuration not stated), inactive: 4.59%.
`Cc1cc2[nH]c(=O)c(=O)[nH]c2cc1S(=O)(=O)N1CCN(c2ccccc2)CC1`: the “activity change, negative = inhibition” value is inactive: 13.3%.
Still for that read-out and setting: then `N#C/C(=C\c1cccs1)c1nc2ccccc2[nH]1`, with inactive: 27.5%.
Take `CCO[C@H]1OC(C(=O)NCc2ccccc2)=C[C@@H](c2cn(C(C)=O)c3ccccc23)[C@@H]1CCCO`: the “activity change, negative = inhibition” value was inactive: -21.5%.
For the molecule `O=C(Nc1ccccc1)C1=C[C@H](c2ccc(C(F)(F)F)cc2)C[C@H](OCc2ccc(CO)cc2)O1`, the “activity change, negative = inhibition” value was inactive: -24.4%.
Turning to `CC(Oc1ccc2c(-c3ccccc3)cc(=O)oc2c1)C(=O)NCC1CCC(C(=O)O)CC1` (configuration not stated), the “activity change, negative = inhibition” value was inactive: -0.103%.
Turning to `O=C(NCC1CCOCC1)c1cc(COc2cccc(C(F)(F)F)c2)on1`, the Potency was active: 23.1 µM.
For the molecule `Cc1ccc2[nH]c3c(=O)n(CC(=O)NCc4ccco4)ncc3c2c1`, the “activity change, negative = inhibition” value was inactive: 0.517%.
With `CSc1nc2nccc(-c3ccc(Oc4ccccc4)cc3)n2n1`, the Potency was active: 18.4 µM.
For the molecule `Cn1nc(C(=O)NCc2ccccc2)c2c1-c1ccccc1S(=O)(=O)C2`, the “activity change, negative = inhibition” value is inactive: -18.8%.
As for `O=C1NC[C@@H](c2ccccc2)OC(=O)[C@@H](Cc2ccc(F)cc2)CC/C=C/C[C@@H]1CC(=O)N(CCO)Cc1ccccc1`, the “activity change, negative = inhibition” value is inactive: -11.1%.
Turning to `Cc1c(Cl)cccc1NC(=O)Nc1ccc2snnc2c1`, the Potency was active: 20.6 µM.
Take `Cc1cccc(CSc2ccc(-c3cccs3)nn2)c1`: the “activity change, negative = inhibition” value is inactive: 16.7%.
Consider `O=C(N/C(=C/c1cccc([N+](=O)[O-])c1)C(=O)N1CCCCC1)c1cccs1`, for which the “activity change, negative = inhibition” value is inactive: -0.432%.
Consider `O=C(N[C@@H]1C/C=C\C[C@@H](CC(=O)N(CCO)Cc2ccccc2)C(=O)N[C@H](Cc2ccccc2)COC1=O)OCC1c2ccccc2-c2ccccc21`, for which the “activity change, negative = inhibition” value is inactive: -2.23%.
Same read-out and setting: under `COc1cc(O)c(C(CC(=O)N2CCN(c3ccccc3)CC2)c2ccc(N(C)C)cc2)c(OC)c1` (configuration not stated) stands inactive: -5.22%.
`O=C(Nc1cccc(-c2nnc(-c3ccccc3)o2)c1)c1ccc(Br)o1`: the Potency was active: 23.1 µM.
With `COc1ccc(NC(=O)CN(C)S(=O)(=O)c2cnc[nH]2)cc1Cl`, the “activity change, negative = inhibition” value was inactive: 9.53%.
Same read-out and setting: under `O=C(O)c1ccc(NC(=O)c2cn(-c3ccccc3)nc2-c2ccc(Br)cc2)cc1` stands inactive: -18.5%.

The record behind these values is PubChem BioAssay AID504444 (National Center for Advancing Translational Sciences (NCATS), 2011).
